Laboratory results reported in PMC4336329 (PLoS ONE, 2015).
In all, about 310,000 compounds went through this assay and about 14,000 (4.5%) showed an effect of 50% or more. Effects have a minus sign here. This is one part of the list.

target: human ether-à-go-go-related gene (hERG) potassium channel (human, UniProt Q12809); test: primary screen, population patch clamp on CHO cells stably expressing hERG
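Also: peak tail current of the secondary pulse compared with the same well before compound.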

human ether-à-go-go-related gene (hERG) potassium channel, sequence (Q12809 whole entry, looked up): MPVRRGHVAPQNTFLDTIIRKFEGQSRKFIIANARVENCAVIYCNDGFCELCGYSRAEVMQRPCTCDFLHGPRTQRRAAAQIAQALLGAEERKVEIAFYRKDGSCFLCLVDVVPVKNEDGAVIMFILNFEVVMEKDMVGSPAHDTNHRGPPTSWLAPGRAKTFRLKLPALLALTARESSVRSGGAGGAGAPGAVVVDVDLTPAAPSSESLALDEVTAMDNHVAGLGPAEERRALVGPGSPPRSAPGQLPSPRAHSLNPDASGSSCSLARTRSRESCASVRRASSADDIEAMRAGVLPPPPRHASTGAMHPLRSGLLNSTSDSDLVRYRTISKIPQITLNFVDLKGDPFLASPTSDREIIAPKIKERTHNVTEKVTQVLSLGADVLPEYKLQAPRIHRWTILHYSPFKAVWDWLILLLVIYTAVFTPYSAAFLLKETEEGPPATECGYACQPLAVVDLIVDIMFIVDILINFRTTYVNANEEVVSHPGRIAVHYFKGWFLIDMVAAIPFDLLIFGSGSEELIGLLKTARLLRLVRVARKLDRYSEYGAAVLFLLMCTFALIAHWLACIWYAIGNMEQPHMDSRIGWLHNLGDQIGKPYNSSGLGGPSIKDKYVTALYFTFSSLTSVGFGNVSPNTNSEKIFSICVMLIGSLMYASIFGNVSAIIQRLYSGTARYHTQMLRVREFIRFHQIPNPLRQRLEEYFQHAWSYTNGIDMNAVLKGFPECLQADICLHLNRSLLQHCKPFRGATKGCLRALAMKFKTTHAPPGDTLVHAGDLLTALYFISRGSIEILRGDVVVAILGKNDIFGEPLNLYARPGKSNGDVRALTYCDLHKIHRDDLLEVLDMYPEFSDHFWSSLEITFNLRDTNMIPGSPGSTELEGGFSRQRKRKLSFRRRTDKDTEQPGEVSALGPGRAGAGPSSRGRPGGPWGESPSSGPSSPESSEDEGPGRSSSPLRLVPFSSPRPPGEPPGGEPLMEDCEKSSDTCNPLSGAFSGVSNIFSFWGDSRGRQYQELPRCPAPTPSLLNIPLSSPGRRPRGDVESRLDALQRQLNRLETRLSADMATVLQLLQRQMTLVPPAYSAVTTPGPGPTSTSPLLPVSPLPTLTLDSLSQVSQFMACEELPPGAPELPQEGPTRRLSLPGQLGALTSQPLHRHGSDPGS

Row | Structure (SMILES) | hERG current change (%, negative = inhibition) at 10uM [%]
1 | Cc1nn(Cc2ccccc2)c(=O)n1N(C)c1ncc(C(F)(F)F)cc1Cl | -7.74
2 | Cc1cc(C)n(-c2cc(Oc3ccccc3)ncn2)n1 | 0.911
3 | Cc1cc(C(=O)Nc2ccc3[nH]ccc3c2)no1 | 6.46
4 | O=C1CN(C(=O)COC(=O)Cc2ccsc2)c2ccccc2N1 | -4.05
5 | Cn1cnnc1SCCOc1ccc(Cl)cc1 | -5.37
6 | Cc1cc2cc3c(C)cc(=O)oc3c(C)c2o1 | 19.8
7 | CN(C)CCCNc1ncc(C(F)(F)F)cc1Cl | -7.97
8 | CC(CCc1ccccc1)C(=O)NO (stereo not drawn) | 9.51
9 | COc1ccc(-c2nc(CS(=O)CC(=O)NC3CCCCC3C)c(C)o2)cc1 (stereo not drawn) | -7.26
10 | CCS(=O)(=O)c1nc(S(=O)(=O)c2ccc(C)cc2)c(NCCCN2CCOCC2)s1 | 5.74
11 | CS(=O)(=O)N(CC(=O)N1CCN(c2ccc(F)cc2)CC1)c1cccc(Cl)c1 | -49.9
12 | O=C(COC(=O)c1cccc(S(=O)(=O)Nc2ccc(F)cc2)c1)NCCN1C(=O)CSC1=O | -8.83
13 | Cc1cccc(-n2c(SCC(=O)Nc3cccc(S(=O)(=O)NC4=NCCCCC4)c3)nc3ccccc3c2=O)c1C | -20.7
14 | CCCNCC(O)Cn1c2ccccc2n2c(=O)cc(C)c(C#N)c12 (stereo not drawn) | -29.7
15 | COCCNC(=O)CSc1nc2ccc(N3CCOCC3)cc2c(=O)n1CCc1ccccc1 | -55.1
16 | COc1ccc(C)cc1-n1nnnc1SCC(=O)NC(=O)NCc1ccco1 | 9.86
17 | CN(C)c1nc(/C=C(\C#N)C(N)=O)c(Cl)n1-c1ccc(F)cc1 | 5.02
18 | O=C(Cc1ccc(-n2cccc2)cc1)NC1CCCCC1 | -8.33
19 | Cc1ccc(NC(=O)NNC(=O)c2sccc2-n2cccc2)cc1 | 26.6
20 | Cc1ccc(Cl)cc1NC(=O)Nc1c(C)n(C)n(-c2ccccc2)c1=O | 21.2
21 | N#CCSc1nc2c(sc(=S)n2Cc2ccco2)c(=O)n1-c1ccc(F)cc1 | -0.118
22 | COc1ccc(-c2cc(C(=O)N(C)CC(=O)Nc3ccccc3Cl)c3ccccc3n2)cc1OC | -6.16

Row | Structure (SMILES) | hERG current change (%, negative = inhibition) at 10uM [%]
23 | COC(=O)CN(C#N)c1nc(NC(C)C)nc(OC)n1 | 0.361
24 | COc1ccc(CC(=O)NCC(=O)N=Nc2c(O)[nH]c3ccccc23)cc1 | 10.8
25 | Cc1ccc(CNC(=O)CN(C(=O)C2(C)CC(=O)N=C3C=CC=CN32)c2ccc(F)cc2)cc1 (stereo not drawn) | 19.6
26 | O=C(O)/C=C/C(=O)Nc1ccc(SC(F)(F)F)cc1 | 15
27 | O=C1NC(=O)C(CCc2ccncc2)(CCc2ccncc2)C(=O)N1CCc1ccc(F)cc1 | -68.5
28 | COC(=O)Nc1sc(C(=O)N(C)C)c(C)c1C(=O)OC | 6.87
29 | CC(C)Cc1cc(C(=O)Nc2ccccc2)c2ccccc2n1 | -2.99
30 | Cc1ccc(S(=O)(=O)N/N=C2/CC(c3ccccc3)Oc3ccccc32)cc1 (stereo not drawn) | -19
31 | COc1cc(/C=C/C(=O)OCC(=O)N2CC(=O)Nc3ccccc32)ccc1O | -6.14
32 | COC1C/C(=N\O)C2OC(c3ccccc3)OCC2O1 (stereo not drawn) | 2.38
33 | Cc1cc(C)c(NC2=CC(=O)CC(C)(C)C2)c(C#N)c1.Cl | -31.2
34 | O=C(N/N=C/c1cccc(Cl)c1)c1c(O)c2c([nH]c1=O)CCCC2 | -9.64
35 | Cc1cccc(NC(=S)NNC(=S)NCc2ccccc2)c1 | 9.96
36 | Cc1cccc(C)c1NC(=O)CNC(=O)c1ccccc1OCc1ccccc1 | -3.01
37 | COc1ccccc1NC(=O)C1CCCN1S(=O)(=O)c1cccc2nsnc12 (stereo not drawn) | -4.13
38 | CCOC(=O)C1=C(C)N=c2s/c(=C\c3cccn3C)c(=O)n2C1c1cccc(OC)c1OC (stereo not drawn) | 4.74
39 | CC(=O)c1ccc(OCC(=O)N2CCN(S(=O)(=O)c3ccc(C)cc3C)CC2)cc1 | -61.6
40 | Cc1cc(NC(=S)Nc2ccccc2)ccc1Br | -24
41 | O=C(O)Cn1cnc2c(oc3ccccc32)c1=O | 15.6
42 | Cc1ccc2c(c1)-c1c(ssc1=S)C(C)(C)N2C(=O)CSC1=NCCS1 | 4.27
43 | O=C(O)c1ccc(NC2CC(=O)N(Cc3ccccc3)C2=O)cc1 (stereo not drawn) | 22.2
44 | COc1ccc(S(=O)(=O)N2CCOC2CNC(=O)C(=O)NCc2ccncc2)cc1C (stereo not drawn) | -9.1

Row | Structure (SMILES) | hERG current change (%, negative = inhibition) at 10uM [%]
45 | CC(C)C1=NN(C(=O)c2cccnc2)C(O)(C(F)(F)F)C1 (stereo not drawn) | -13
46 | O=S(=O)(Cc1ccccc1)NCc1ccccn1 | 0.348
47 | COc1ccc(S(=O)(=O)N2CCC(C(=O)Nc3ccccc3N3CCCCC3)CC2)cc1OC | 3.04
48 | O=C(CN1CCOCC1)Nc1ccc2c(c1)OCCO2.O=C(O)C(=O)O | 15
49 | O=S(=O)(NCc1cccnc1)c1ccc(Br)s1 | -1.75
50 | COc1ccc(C(CNC(=O)COc2ccccc2)N2CCCCC2)cc1 (stereo not drawn) | -29.3
51 | C[C@]12CCC[C@H](O1)c1c(cc3c(c1O)C(=O)c1c(O)cc(O)cc1C3=O)O2 | 2.86
52 | CC(=O)c1ccc(NC(=O)c2cc(Cl)nc3ccccc23)cc1 | 6.45
53 | CCNC(=O)Nn1c(-c2ccccc2)nc2ccccc2c1=O | 22.9
54 | O=C(O)[C@@H]1[C@@H]2C[C@@H]2CN1c1ncccc1[N+](=O)[O-] | 27.1
55 | C=CCNc1nc(N)c([N+](=O)[O-])c(Nc2ccccc2OC)n1 | 7.01
56 | CCN(Cc1nc2ccccc2c(=O)[nH]1)C(=O)C1CC(=O)N(c2cccc3ccccc23)C1 (stereo not drawn) | -5.69
57 | O=C(c1ccc(OC2CCN(Cc3ccc(C(F)(F)F)cc3)CC2)cc1)N1CCCCC1 | -57.2
58 | Cc1cc(NC(=O)c2cnn3cccnc23)n(-c2ccccc2)n1 | -61.8
59 | CCOC(Cn1c(CCCO)nc2ccccc21)OCC | -7.25
60 | Cc1c(C(=O)N2CCC3(CC2)CC(=O)c2ccccc2O3)cccc1[N+](=O)[O-] | -83.2
61 | COCCNC(=O)CN(C(=O)CCC(=O)Nc1ccccn1)c1ccc(C)cc1 | 8.38
62 | O=C(O)CSc1nnc(CNc2ccc(F)cc2)n1-c1ccccc1 | 10.9
63 | Cc1cccc(NC2=NC(=S)N(CC#N)C23CCCCC3)c1 | -5.44
64 | CCOc1ccccc1CNC(=O)C1CCN(C(=O)N2CC(C)Oc3ccc(C)cc32)CC1 (stereo not drawn) | -14.9
65 | COc1ccccc1C(=O)OCCN1CCOCC1.Cl | -3.64
66 | COc1ccc(S(=O)(=O)N2CCOCC2)cc1NC(=O)COC(=O)C1CCC1 | -6.23

Row | Structure (SMILES) | hERG current change (%, negative = inhibition) at 10uM [%]
67 | Cc1ccccc1C(=O)Nc1c(C(=O)N2CCN(C)CC2)cnn1-c1ccccc1 | -17.3
68 | Br.COc1cc2c(cc1OC)-c1c(OC)c(OC)cc3c1[C@H](C2)[NH+](C)CC3 | -16.7
69 | O=C(CCC1CCCC1)N1CCN(C(=O)c2cccnc2)CC1 | -20.8
70 | CN(/N=C\c1ccc(O)c(O)c1)c1nc(-c2ccccc2)cc(-c2ccccc2)n1 | 13.5
71 | CC(=O)Nc1nnc(SCc2ccc(C(=O)Nc3ccccc3F)cc2)s1 | 17.9
72 | C=CCn1c(=O)c(C(=O)Nc2ccccc2S(N)(=O)=O)c(O)c2ccccc21 | 24.4
73 | COc1ccccc1C/C(N)=N/OC(=O)c1ccco1 | 0.888
74 | Cc1c(Cl)c([N+](=O)[O-])nn1CC(=O)N1CCc2ccccc2C1 | 1.08
75 | O=C(CCc1nc2ccccc2c(=O)[nH]1)OCc1ccccc1F | -2.75
76 | CCC1CCCCN1C(=O)COC(=O)CN(C)S(=O)(=O)c1ccc(NC(C)=O)cc1 (stereo not drawn) | 7.22
77 | CCn1c(O)c(/C=N/NC(=O)c2ccccc2)c(=O)n(CC)c1=S | 13.6
78 | O=C(Cc1ccccc1)NCCCc1ccccc1 | 9.42
79 | CCOC(=O)C1=C(COC(=O)/C=C/c2ccc(C)o2)NC(=O)NC1C (stereo not drawn) | -18.8
80 | COc1ccc(S(=O)(=O)N(C)c2ccc(C(=O)N3CCC(C(N)=O)CC3)cc2)cc1 | -6.34
81 | CN(C)S(=O)(=O)c1cccc(NC(=O)Cc2ccc(-c3ccccc3)cc2)c1 | 6.71
82 | CCn1c(COc2ccccc2)nnc1SCC(=O)NC1CC1 | 6.41
83 | Cc1cccc(NC(=O)CCS(=O)(=O)c2cccc3nsnc23)c1C | 17.9
84 | O=C(NCc1ccco1)c1ccc(CS(=O)(=O)c2cccc(C(F)(F)F)c2)o1 | -60.3
85 | Cc1cc(C)cc(NC(=O)Cc2ccc(NC3=NC4CS(=O)(=O)CC4S3)cc2)c1 (stereo not drawn) | 9.81
86 | CCCCn1c(N)c(N(CC(C)C)C(=O)c2c(-c3ccccc3)noc2C)c(=O)[nH]c1=O | -3.01
87 | CCN1CCN(c2cc(C)c3cc(NC(=S)N4CCC5(CC4)OCCO5)ccc3n2)CC1 | -21.3
